Laboratory results: the RNAGym collection of RNA variant scans (doi:10.1093/nar/gkz1192)
Read counts are not given, so values of variants with three or more changes are uncertain.

B1: CPEB3 Ribozyme (parent)
chain: UAACAGGGGGCCACAGCAGAAGCGUUCACGUCGCAGCCCCUGUCAGAUUCUGGUGAAUCUGCGAAUUCUGCUGUAUAUCUC

Variants of: B1
Assay: self-cleavage, relative activity (ratio to wild type); higher = more cleavage; in vitro, sequencing
How it was run: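 For each CPEB3 ribozyme variant, relative activity is its cleaved/total read fraction divided by the unmutated ribozyme's. Barcoded error-prone PCR libraries were transcribed by T7 RNA polymerase (5 hours, 37°C) and held in DNase I for 15 min before an EDTA stop, with cleavage occurring throughout. Template-switching reverse transcription and Illumina sequencing were used to read the RNAs. A 5-read minimum applied, and results are the mean of three batches.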

Variant	self-cleavage
U43C U66C U69C	0.11
U43C U66C U72C	0.18
U43C U67C A75G	0.1
U43C U67C U76A	0.23
U43C U69A A75G	0.22
U43C U69C U76G U78C	0.13
U43C U69C U78A U80C	0.39
U43C U69C U80A	0.16
U43C U72C U78C	0.9
U43C U74C U80G	0.74
U43C U74G A77U	0.99
U43G A45G U51A U76C A77G	0.16
U43G A56U U67C U72A	0.08
U43G A57G G73C	0.2
U43G A64U U80C	0.19
U43G C44U A57G U58C A75G	0.14
U43G U48C A64G U67C	0.15
U43G U48C U58C U60A	0.18
U43G U51C A64U U74C	0.43
U43G U54A C71A	0.15
U43G U66C U72C A77U	0.05
U43G U69G U72A	0.15
U43G U72A U78C	0.13
C44A U54G U69C	0.04

Variant	self-cleavage
C44A U60G U74C	1.04
C44A U66C U80C	0.21
C44A U74G U76A	0.5
C44G U49C U72C	0.1
C44G U51C U54A	0.46
C44G U51C U66C A77U U80C	0.06
C44G U58A A64G	0.05
C44U A45G A47G	0.18
C44U A45G U49C A64U A75G	0.05
C44U A45G U76C	0.35
C44U A56U U60A	0.13
C44U A65G U66C	0.18
C44U G53C U54C A64U	0.24
C44U U48C U54C	0.19
C44U U51A U69C	0.15
C44U U51C A56G U58A	0.19
C44U U54C A56U U58C U78C	0.06
C44U U60A U67C U72G A75G A77G	0.05
C44U U60C U74A	0.16
C44U U66C U67C	0.73
C44U U69C U72A	0.16
A45C A47G U54C U60A A65U	0.14
A45C A56G U80C	0.38
A45C A65G U67C U80C	0.35

Variant	self-cleavage
A45C C62A A64G A75G	0.1
A45C G52C U69A	0.27
A45C U48C A56U C59A U72C	0.18
A45C U51A U76A	0.21
A45C U51A U80C	0.21
A45C U54C C62U	0.1
A45C U58A A64U U67A	0.05
A45C U69A U72C U76C	0.14
A45G A47C A64G	0.04
A45G A47G A56U	0.37
A45G A47G U54C U60A A64G	0.13
A45G A47G U58C U69C	0.15
A45G A47G U78C	0.36
A45G A47U A56G	0.09
A45G A47U U48C	0.4
A45G A47U U58C	0.23
A45G A47U U60C	1.05
A45G A47U U74A	0.54
A45G A56C G61C	0.21
A45G A56G U72A	0.15
A45G A56G U78A	0.69
A45G A56U U66C	0.21
A45G A56U U67A	0.28
A45G A57G A64C	0.34

Variant	self-cleavage
A45G A57G C59U U72C	0.23
A45G A57G C68U U69A	0.31
A45G A57G G70U	0.23
A45G A57G U69A	0.26
A45G A57G U80C	0.57
A45G A57U U66C	0.23
A45G A57U U72C A77G	0.33
A45G A64C C79U	0.23
A45G A64G A65G U66C	0.17
A45G A64G G73U	1.1
A45G A64G U69A	0.31
A45G A64U C79A	0.28
A45G A64U U67A	0.45
A45G A64U U72C	0.34
A45G A64U U80C	1.19
A45G A65G U67C	0.38
A45G A77U U78C	0.93
A45G C62U U69A	0
A45G C68A A77U	0.27
A45G G46A A56G U72C	0.06
A45G G52A U54G A64G	0.17
A45G G52A U67A	0.36
A45G G52A U67C U74A	0.38
A45G G53A A57G U60A	0.49

Variant	self-cleavage
A45G G53A A65G A77G	0.3
A45G G53A U69C	0.6
A45G G55A A64U	0.31
A45G G61C A64U U67C A75C	0.21
A45G G61C U66C	0.26
A45G G61C U66C U72C	0.25
A45G G73A A75G	0.99
A45G U48A U49C A64G	0.04
A45G U48A U51C U69C	0.21
A45G U48C A64G U66C U80C	0.21
A45G U48C U49C A56U	0.82
A45G U48C U58A	0.15
A45G U48C U58A A64G	0.12
A45G U48C U58A U60C C62U U80C	0.16
A45G U48C U60A C81U	0.24
A45G U48C U67G U76C	0.16
A45G U48C U69C U72A	0.17
A45G U49A C50U	0.46
A45G U49A U60A U72A	0.16
A45G U49A U67C C79G U80C	0.13
A45G U49A U69C	0.3
A45G U49C U51C G61A U74A	0.21
A45G U49C U74C	0.41
A45G U49C U76A	0.26

Variant	self-cleavage
A45G U49C U76C	0.12
A45G U49G A57G	0.28
A45G U49G A75U	0.24
A45G U51A A57G	0.35
A45G U51A G55C A57G	0.23
A45G U51A U67C	0.28
A45G U51A U72A A77U U78C	0.66
A45G U51C A56U	0.26
A45G U51C A64G	0.57
A45G U51C A65G U72C A75G U76C	0.37
A45G U51C C62A U66C	0.4
A45G U51C G63A	0.44
A45G U51C U54A U72C	0.51
A45G U51C U60A	0.33
A45G U51C U67A	0.36
A45G U51C U67A U69A	0.41
A45G U51C U67C A77G	0.4
A45G U51C U74A	1.04
A45G U54C A56G	0.53
A45G U54C U69C U78C	0.28
A45G U54G A56U	0.27
A45G U54G U67C	0.19
A45G U54G U80C	0.34
A45G U58A A64C A77U	0.24

Variant	self-cleavage
A45G U58A U67C U72C	0.11
A45G U58C U60C U72G U76A	0.46
A45G U58C U72C	0.21
A45G U60A U66C	0.28
A45G U60A U67C A75G	0.21
A45G U60C C71A	0.43
A45G U60C G73U	1.2
A45G U60C U66C	0.24
A45G U60C U67C A75G	0.17
A45G U60C U69A	0.53
A45G U60C U74C A75G	1.28
A45G U60G U74A	0.59
A45G U66A U78C	0.12
A45G U66C A77G	0.36
A45G U66C C79U	0.34
A45G U66C U74A U78G	0.49
A45G U66C U76A	0.27
A45G U67C U72A	0.26
A45G U69A U80C	0.58
A45G U69C C79A	0.61
A45G U69C U74A A77G	0.58
A45G U69C U76A	0.56
A45G U69C U78A	0.32
